Measured values reported in PMC12592546.
Results are given in words; binding and its absence hold for the method and conditions named. Binding seen in cells or lysates may run through a third protein. Some results given as binding are weak or reduced against the parent protein; the word gives no strength. For part of these data: Tags and fused reporters may be left off the sequences shown. Values belong to the substance of their own block, whether it stands above or below them.

Protein sequences, listed by entry. Tags and fused reporters are not part of them.
UniProt Q92830: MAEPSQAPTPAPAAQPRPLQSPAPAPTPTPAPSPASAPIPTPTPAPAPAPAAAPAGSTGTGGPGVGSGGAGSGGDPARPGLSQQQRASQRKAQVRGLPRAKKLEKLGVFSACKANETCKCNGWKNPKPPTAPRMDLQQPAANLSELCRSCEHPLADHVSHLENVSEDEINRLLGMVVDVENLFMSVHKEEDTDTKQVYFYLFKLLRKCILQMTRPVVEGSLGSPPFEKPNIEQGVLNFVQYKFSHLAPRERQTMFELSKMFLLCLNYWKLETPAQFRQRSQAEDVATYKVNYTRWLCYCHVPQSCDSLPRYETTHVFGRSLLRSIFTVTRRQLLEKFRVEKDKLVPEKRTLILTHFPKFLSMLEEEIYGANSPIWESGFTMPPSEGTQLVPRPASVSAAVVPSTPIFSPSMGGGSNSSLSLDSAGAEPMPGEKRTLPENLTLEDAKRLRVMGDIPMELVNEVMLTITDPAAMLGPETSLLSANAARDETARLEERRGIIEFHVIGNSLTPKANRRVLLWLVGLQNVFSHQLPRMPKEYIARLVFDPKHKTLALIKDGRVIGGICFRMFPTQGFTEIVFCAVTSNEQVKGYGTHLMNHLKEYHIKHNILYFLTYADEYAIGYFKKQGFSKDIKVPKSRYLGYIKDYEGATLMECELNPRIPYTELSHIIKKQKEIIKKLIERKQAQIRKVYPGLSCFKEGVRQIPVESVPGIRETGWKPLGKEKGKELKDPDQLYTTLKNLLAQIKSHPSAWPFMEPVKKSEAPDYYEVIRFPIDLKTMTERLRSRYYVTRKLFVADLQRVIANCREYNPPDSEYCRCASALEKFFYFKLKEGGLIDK
UniProt Q06609: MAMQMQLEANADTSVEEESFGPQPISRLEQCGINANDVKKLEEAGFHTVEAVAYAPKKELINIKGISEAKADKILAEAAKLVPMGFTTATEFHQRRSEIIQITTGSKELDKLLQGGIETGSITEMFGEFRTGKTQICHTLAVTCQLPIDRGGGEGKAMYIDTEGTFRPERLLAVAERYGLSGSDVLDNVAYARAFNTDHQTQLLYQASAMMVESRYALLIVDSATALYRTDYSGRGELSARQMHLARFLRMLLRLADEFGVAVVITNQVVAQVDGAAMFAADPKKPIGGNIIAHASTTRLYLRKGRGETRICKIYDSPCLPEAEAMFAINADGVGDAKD
UniProt P08621: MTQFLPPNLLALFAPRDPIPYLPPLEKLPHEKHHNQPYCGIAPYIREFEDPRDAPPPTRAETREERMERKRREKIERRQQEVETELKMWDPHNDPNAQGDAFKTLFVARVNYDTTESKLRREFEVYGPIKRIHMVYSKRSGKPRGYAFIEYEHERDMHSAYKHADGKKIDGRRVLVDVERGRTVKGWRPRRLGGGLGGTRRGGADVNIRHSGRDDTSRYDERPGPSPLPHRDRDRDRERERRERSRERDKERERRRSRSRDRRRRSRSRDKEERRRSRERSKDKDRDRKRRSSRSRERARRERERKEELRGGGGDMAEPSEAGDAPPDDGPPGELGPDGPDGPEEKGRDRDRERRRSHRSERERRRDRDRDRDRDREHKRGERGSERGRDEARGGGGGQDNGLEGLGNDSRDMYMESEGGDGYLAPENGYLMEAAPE

Experiments:
[1] = biological target: T1, serine/arginine-rich splicing factor 11 (SRSF11) (human (endogenous in Huh7 and LM3)) (UniProt Q05519); assay: proximity ligation; in situ Proximity Ligation Assay (PLA), Supplementary Fig. 1g; cells not named in the text shown
T1 sequence: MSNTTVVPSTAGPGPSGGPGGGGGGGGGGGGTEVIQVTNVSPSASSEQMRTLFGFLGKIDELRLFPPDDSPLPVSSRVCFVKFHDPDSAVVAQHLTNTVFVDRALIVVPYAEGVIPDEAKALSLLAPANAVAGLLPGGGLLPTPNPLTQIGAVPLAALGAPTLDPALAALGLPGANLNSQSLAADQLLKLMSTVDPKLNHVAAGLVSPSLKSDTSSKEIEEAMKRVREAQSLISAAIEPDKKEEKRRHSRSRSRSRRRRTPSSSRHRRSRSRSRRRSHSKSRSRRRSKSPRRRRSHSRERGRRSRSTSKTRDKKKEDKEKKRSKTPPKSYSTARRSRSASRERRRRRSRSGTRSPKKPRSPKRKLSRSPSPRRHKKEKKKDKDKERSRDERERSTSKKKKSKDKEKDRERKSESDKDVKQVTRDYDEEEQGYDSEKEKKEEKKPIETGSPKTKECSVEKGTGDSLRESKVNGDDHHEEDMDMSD

[2] = biological target: T1, serine/arginine-rich splicing factor 11 (SRSF11) (human (endogenous in Huh7 and LM3)); assay: co-IP; endogenous proteins in Huh7 and LM3 cells; IP with anti-SRSF11 and blot for KAT2A, or IP with anti-KAT2A and blot for SRSF11
HA-RAD52^△Ex10 (human) = biological target: T2, HA-RAD52^△Ex10 (human) (UniProt P43351); assay: co-IP; Huh7 and LM3 cells overexpressing HA-RAD52 or HA-RAD52^△Ex10; IP with anti-HA or anti-RAD51; HA-RAD52^△Ex10 also with or without Flag-SRSF11
T2 sequence: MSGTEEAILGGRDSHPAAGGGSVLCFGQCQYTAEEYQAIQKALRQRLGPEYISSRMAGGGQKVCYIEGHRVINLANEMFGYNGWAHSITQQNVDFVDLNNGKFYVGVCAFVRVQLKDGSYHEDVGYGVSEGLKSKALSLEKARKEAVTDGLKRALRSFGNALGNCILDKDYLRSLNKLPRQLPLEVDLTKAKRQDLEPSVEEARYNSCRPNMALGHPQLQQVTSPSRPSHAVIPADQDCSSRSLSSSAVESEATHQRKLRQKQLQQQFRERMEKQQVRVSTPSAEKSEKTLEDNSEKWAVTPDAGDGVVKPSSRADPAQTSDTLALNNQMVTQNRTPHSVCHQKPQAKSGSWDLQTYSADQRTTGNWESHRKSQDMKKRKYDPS

HA-RAD52 (human) = biological target: T3, HA-RAD52 (human) (UniProt P43351); assay: as above
T3 sequence: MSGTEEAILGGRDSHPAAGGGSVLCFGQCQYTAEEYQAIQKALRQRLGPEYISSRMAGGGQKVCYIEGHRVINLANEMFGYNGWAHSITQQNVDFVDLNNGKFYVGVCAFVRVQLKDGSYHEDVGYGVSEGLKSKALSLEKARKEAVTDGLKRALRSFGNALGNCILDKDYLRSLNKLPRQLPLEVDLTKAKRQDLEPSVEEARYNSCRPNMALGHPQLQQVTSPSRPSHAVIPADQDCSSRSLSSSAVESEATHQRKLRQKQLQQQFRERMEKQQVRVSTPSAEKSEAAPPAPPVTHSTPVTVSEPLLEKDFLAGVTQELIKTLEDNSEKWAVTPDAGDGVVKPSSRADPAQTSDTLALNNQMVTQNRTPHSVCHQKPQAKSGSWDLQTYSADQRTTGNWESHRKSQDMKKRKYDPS

[3] = biological target: T4, RAD52 (endogenous) (human (endogenous in Huh7)) (UniProt P43351); assay: co-IP; endogenous proteins; IP with anti-RAD52, blot for RAD51; also in Huh7 cells with siRAD52^Ex10, Flag-SRSF11, siSRSF11 or siKAT2A (binding told as more or less)
T4 sequence: T3 sequence

Flag-SRSF11 = biological target: T5, Flag-SRSF11 (UniProt Q05519); assay: co-IP; Huh7 cells transfected with Flag-SRSF11; IP with anti-Flag, blots for U2AF2, PRPF8 and SNRNP70; also with siSRSF11, siKAT2A or HA-KAT2A (binding told as more or less)
T5 sequence: T1 sequence

binding [1]: binds | binding [2]: binds
Substance: K(lysine) acetyltransferase 2A (KAT2A) (from UniProt Q92830 1-837) (enzyme)

binding (HA-RAD52^△Ex10 (human)): no binding | binding (HA-RAD52 (human)): binds | binding [3]: binds
Substance: RAD51 (endogenous) (from UniProt Q06609 1-339)

binding (Flag-SRSF11): binds
Substance: SNRNP70 (from UniProt P08621 1-437)
